Laboratory results: article PMC4336329 (PLoS ONE, 2015)
About 2,200 (0.71%) of roughly 310,000 compounds showed an effect of 50% or more. The effect is printed as a negative number. This is one part of the list.

Target: human ether-à-go-go-related gene (hERG) potassium channel (human, UniProt Q12809)
Assay: primary screen, population patch clamp on CHO cells stably expressing hERG

Sequence of human ether-à-go-go-related gene (hERG) potassium channel (Q12809 whole entry, looked up): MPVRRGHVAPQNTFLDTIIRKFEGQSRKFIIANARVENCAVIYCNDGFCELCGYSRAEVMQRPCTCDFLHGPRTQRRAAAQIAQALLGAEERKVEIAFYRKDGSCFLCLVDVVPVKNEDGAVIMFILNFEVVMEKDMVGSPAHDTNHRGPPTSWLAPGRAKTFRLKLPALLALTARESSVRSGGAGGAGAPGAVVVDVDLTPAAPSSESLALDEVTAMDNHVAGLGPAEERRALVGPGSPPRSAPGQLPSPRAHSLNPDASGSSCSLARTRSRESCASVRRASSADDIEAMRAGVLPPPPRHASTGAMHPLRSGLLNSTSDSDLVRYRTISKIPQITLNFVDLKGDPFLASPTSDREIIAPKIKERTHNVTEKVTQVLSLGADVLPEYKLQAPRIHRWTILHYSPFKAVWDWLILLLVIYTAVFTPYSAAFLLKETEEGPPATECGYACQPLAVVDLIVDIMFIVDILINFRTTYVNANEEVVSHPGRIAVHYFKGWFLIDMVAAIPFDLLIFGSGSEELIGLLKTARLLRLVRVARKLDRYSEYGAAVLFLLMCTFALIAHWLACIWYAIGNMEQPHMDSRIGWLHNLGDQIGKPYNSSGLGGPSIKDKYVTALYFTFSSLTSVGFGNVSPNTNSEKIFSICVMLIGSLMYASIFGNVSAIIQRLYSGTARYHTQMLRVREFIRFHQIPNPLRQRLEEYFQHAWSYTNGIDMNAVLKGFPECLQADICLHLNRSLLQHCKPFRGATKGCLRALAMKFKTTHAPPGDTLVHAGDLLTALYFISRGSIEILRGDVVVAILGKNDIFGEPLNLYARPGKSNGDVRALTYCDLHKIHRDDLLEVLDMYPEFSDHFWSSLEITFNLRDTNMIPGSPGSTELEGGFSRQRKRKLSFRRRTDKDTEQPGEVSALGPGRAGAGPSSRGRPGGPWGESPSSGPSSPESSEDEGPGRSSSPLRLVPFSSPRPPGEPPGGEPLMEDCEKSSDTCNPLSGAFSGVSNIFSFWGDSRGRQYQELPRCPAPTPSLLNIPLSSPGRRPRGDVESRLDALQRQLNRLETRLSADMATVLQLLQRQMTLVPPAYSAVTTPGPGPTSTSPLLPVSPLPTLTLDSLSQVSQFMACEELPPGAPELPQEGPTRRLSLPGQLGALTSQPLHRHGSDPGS

| Compound | hERG current change (%, negative = inhibition) at 1uM |
| --- | --- |
| O=S(=O)(c1ccccc1)n1c(C(O)c2ccccn2)cc2ccccc21 (stereo not shown) | 6.94% |
| CCc1ccc(-c2cc(C)no2)cc1S(=O)(=O)N1CCC(C)CC1 | 8.92% |
| O=C(N[C@@H](Cc1ccccc1)C(=O)NCc1ccc(F)cc1)C1CCNCC1 | 25.4% |
| CCOC(=O)CC(=O)Nc1ccc(C(=O)OCC)cc1 | -6.42% |
| COc1cc(NC(=S)NCCC(c2ccccc2)c2ccccc2)c(OC)cc1Cl | 6.29% |
| COc1ccccc1-n1c(SCC(=O)NCC2CCCO2)nc2c([nH]c3ccccc32)c1=O (stereo not shown) | 12.8% |
| Cc1ccc(-c2cnc(N)n2C)cc1C | 15.4% |
| CC[n+]1c(C)sc2sc3ccccc3c21.[I-] | 8.6% |
| COc1ccc(OC)c(C(=O)NC(CC(N)=O)c2ccc(NCCN3CCCCC3)c([N+](=O)[O-])c2)c1 (stereo not shown) | 2.05% |
| O=S(=O)(N=S(N1CCCCC1)N1CCCCC1)c1ccccc1 | -3.22% |
| CCOC(=O)C(OC(=O)c1sc(=S)n(C)c1C)C(C)=O (stereo not shown) | 18% |
| COc1ccc(S(=O)(=O)NC2CC(C)(C)NC(C)(C)C2)cc1 | 7.99% |
| COc1ccc(C(=O)NCc2ccc(-c3nc4ccccc4s3)cc2)cc1OC | 4.21% |
| COc1ccc(-c2c[n+]3c(n2-c2ccccc2)SCC3)cc1OC.[Br-] | 10.6% |
| Cc1ccc(CNC(=O)CCCn2c(=O)[nH]c3ccccc3c2=O)cc1 | 12.3% |
| Cc1ccc(C(=O)c2sc3c(c2N)c(=O)[nH]c(=O)n3CCc2ccccc2)cc1 | 10% |
| CCOC(=O)c1cc2c(=O)n3ccccc3nc2n(C(C)C)c1=NC(=O)c1c(-c2c(F)cccc2Cl)noc1C | 7.84% |
| O=C(C1=C[C@H](c2csc3ccccc23)C[C@H](OCCCCO)O1)N1CCOCC1 | 7.87% |
| CCc1nnc(NC(=O)c2cc(S(=O)(=O)N(C)c3ccc(OC)cc3)ccc2Cl)s1 | 7.12% |
| Cc1c(F)cccc1NC(=O)CCC(=O)O | 9.98% |
| CC(NC(=O)C1CCN(S(=O)(=O)N2CCC3(CC2)OCCO3)CC1)c1ccccc1 (stereo not shown) | 9.42% |
| CCCCN(CCCNC(=O)C1CCN(C(=O)c2cc3sccc3n2C)CC1)Cc1ccccc1 | -31% |

| Compound | hERG current change (%, negative = inhibition) at 1uM |
| --- | --- |
| COc1c(O)c(O)c2oc(-c3ccccc3)cc(=O)c2c1OC | -1.79% |
| COc1ccc(OC)c(NC(=O)CSc2nnc3ccc(-c4ccncc4)nn23)c1 | -11.2% |
| CCc1noc(C)c1C(=O)Nc1ccc(S(=O)(=O)N2CCCCC2)cc1 | 2.88% |
| Cc1ccc(Cl)c(OCCCCN(C)Cc2ccccc2)c1.O=C(O)C(=O)O | 1.14% |
| Cc1c(C(=O)NNS(=O)(=O)c2ccccc2Cl)sc(=S)n1C | 11.8% |
| CC/C=C/C(=O)N1CC2(CC(c3cccc(NC(=O)CCCCC)c3)=NO2)C[C@H]1C(N)=O (stereo partly shown) | 11.1% |
| COc1ccc(/C=C/C(=O)c2c(O)ccc3c(C)cc(=O)oc23)cc1 | 0.0569% |
| Cc1ccc(C(=O)NCC(c2ccco2)N2CCc3ccccc32)cc1 (stereo not shown) | 6.44% |
| CC(=O)Nc1ccc(NC(=O)c2c(C)nn(-c3ccccc3)c2Cl)cc1C | -6.07% |
| Cc1ccc(C)c(CSC2=NN3CCCC(=O)N=C3S2)c1 | 5.54% |
| O=C(NC1CCCCC1)N1CCCC(c2nc(-c3ccc(S(=O)(=O)N4CCCC4)cc3)no2)C1 (stereo not shown) | 5.38% |
| O=C(c1ccc(NS(=O)(=O)c2ccc(Cl)cc2)cc1)N1CCOCC1 | 11.9% |
| Cc1ccccc1NS(=O)(=O)c1ccc(C(=O)N2CCCC2)cc1 | 15.7% |
| Clc1ccc(CSc2ncn(-c3ccccc3)n2)cc1 | 6.05% |
| O=C(C1=C[C@H](c2ccc3c(c2)OCO3)C[C@H](OCc2ccc(CO)cc2)O1)N1CCN(Cc2ccc3c(c2)OCO3)CC1 | -1.99% |
| COCCn1c(SCC(=O)N2CCCCCC2)nc2c(c1=O)SCC2 | 12.7% |
| COc1ccc(CCNC(=O)CSc2cn(Cc3cccc(C)c3)c3ccccc23)cc1OC | 11.3% |
| COc1ccc(Nc2nc(-c3ccncc3)nc3ccccc23)cc1 | 13.1% |
| CC(NC(=S)Nc1c(Cl)cccc1OC(F)F)C(C)(C)C (stereo not shown) | 3.38% |
| COC(=O)c1ccc(COn2c(=O)c(C)[n+]([O-])c3ccccc32)cc1 | 5.54% |
| CCOc1ncccc1C(=O)Nc1ccc(Cl)cc1 | 4.36% |
| C#CCSc1[nH]c(=O)cc(C)c1C#N | 15.2% |

| Compound | hERG current change (%, negative = inhibition) at 1uM |
| --- | --- |
| COC(=O)c1ccc(NC(=O)c2cc[n+](Cc3ccccc3)cc2)cc1.[Cl-] | 19.4% |
| COc1ccccc1NC(=O)c1sc2ncn(Cc3ccccc3C)c(=O)c2c1C | 15.3% |
| CCOC(=O)c1c(C)[nH]c(C)c1C(=O)COC(=O)c1ccc(S(=O)(=O)N(CC)CC)cc1 | 8.33% |
| CC1CN(C(=O)C2CCCC2)C(C)CN1C(=O)C1CCCC1 (stereo not shown) | 15.9% |
| C#CCNC(=O)C1=C[C@@H](c2ccc3c(c2)OCO3)C[C@@H](OCc2ccc(CO)cc2)O1 | 7.25% |
| Cc1ccc(CCNC(=O)c2sc3nc4n(c(=O)c3c2C)CCC4)cc1 | 13.7% |
| Cc1ccc(S(=O)(=O)N(C)C)cc1-n1c(SCC(=O)Nc2ccc(F)cc2)nc2ccccc2c1=O | 6.21% |
| COc1ccc(/C=C/C(=O)N2CCN(c3ccccn3)CC2)cc1OC | 13.1% |
| COc1nc(N)c(S(=O)(=O)c2ccccc2)cc1C#N | -4.58% |
| COc1ccc(C(C)=O)cc1CN1C(=O)NC(c2ccccc2)(c2ccccc2)C1=O | 3.47% |
| CCN(CC)C(=O)c1c(C)[nH]c(=S)c(C#N)c1-c1ccco1 | 4.95% |
| COc1cc(CNc2ccc(N3CCCC3)cc2)ccc1OCc1ccccc1F | 13.3% |
| COc1ccccc1NC(=O)CN1CCN(CC(=O)Nc2ccc3c(c2)OCO3)CC1 | -67.3% |
| CCOC(=O)C1(CCc2ccccc2)CCN(Cc2cnc(N(C)C)s2)CC1 | -86.4% |
| O=C(CC(NC(=O)c1ccccc1)c1ccccc1)Nc1cccc2ccccc12 (stereo not shown) | 10.6% |
| O=C(NNC(=O)c1ccc2ccccc2c1O)c1ccccc1Cl | 4.54% |
| O=C(Nc1ccccc1C(=O)N1CCN(Cc2ccccc2)CC1)c1ccccc1 | 9.2% |
| CC1(C)Oc2ccc(/C=C/C(=O)N3CCOCC3)c(O)c2C(N2CCOCC2)C1O (stereo not shown) | 10.6% |
| O=C(O)C1Nc2ccc(C(F)(F)F)cc2C2OCCC12 (stereo not shown) | 10.7% |
| CCOc1ccc(-c2nc(CSCC(=O)NCc3ccco3)c(C)o2)cc1 | 2.04% |
| CCOC(=O)C1(C)/C(=N/Nc2ccccc2OC)C(=O)C(=O)N1c1ccccc1 (stereo not shown) | 14.2% |
| COc1cccc(C2c3c(oc4cc(C)c(C)cc4c3=O)C(=O)N2CCCN(C)C)c1 (stereo not shown) | -3.67% |

| Compound | hERG current change (%, negative = inhibition) at 1uM |
| --- | --- |
| Cc1ccc(NC(=O)Cn2cnc([N+](=O)[O-])c2)cc1C | 8.13% |
| Cc1noc(C)c1COC(=O)CCC(=O)c1ccc(F)cc1 | 15.4% |
| CCNc1ccc(Br)cc(C(=O)/C=C/c2c(Cl)cccc2Cl)c1=O | 2.19% |
| C/C(=N\Nc1nnc(-c2ccccc2)c(-c2ccccc2)n1)c1cccc([N+](=O)[O-])c1 | 3.77% |
| CCCOc1ccc(-c2c(C(=O)N/N=C(\C)c3ccncc3)nnn2-c2nonc2N)cc1 | 15.7% |
| COc1ccccc1CNC(=O)CN1C(=O)C(C)N(c2ccc(C)cc2)C1=O (stereo not shown) | 6.07% |
| O=S(=O)(NC(=S)NC1CCCCC1)c1cccs1 | 11% |
| CCN1CCN(Cc2ccc(NC(=O)c3ccc(C)c(NC(=O)c4ccno4)c3)cc2C(F)(F)F)CC1 | 9.11% |
| O=C(Nc1ccc(F)cc1)NC1CCCc2ccccc21 (stereo not shown) | 9.98% |
| CC(=O)Nc1ccc(NC(=O)c2ccccc2N(Cc2ccccc2)S(C)(=O)=O)cc1 | 8.42% |
| Cc1ccccc1-n1nnnc1SCc1csc(-c2ccccc2)n1 | 15.4% |
| COc1cc(C(=O)OCC(=O)NCc2ccco2)cc(OC)c1OC | 6.62% |
| Cc1ccc2cc(CCl)c(Cl)nc2c1 | 5.79% |
| CCOc1cccc(C(=O)Nc2ccc3oc(-c4cccnc4)nc3c2)c1 | 9.72% |
| COc1ccc(OC)c(-c2csc(NC(=O)CSCC(=O)Nc3cc(C)on3)n2)c1 | 19.5% |
| CCn1c(SCc2c(Cl)cccc2Cl)nc2nc3c(cc2c1=O)CCCC3 | 11.2% |
| CCOc1ccc2oc(-c3ccccc3)c(C(N)=O)c2c1 | 12.5% |
| CCOC(=O)CC(=O)c1cc(OC)c(OC)c(OC)c1 | -0.0715% |
| O=C(CCS(=O)(=O)c1cccc2nonc12)Nc1ccc(Br)cc1 | 8.59% |
